Reference: PubChem BioAssay AID686978 (National Center for Advancing Translational Sciences (NCATS), 2013)
Where “and” joins values, the source holds several entries; their conditions need not be identical. Equal entries are not always repeated. Screen size: about 420,000 compounds; about 64,000 (15%) were called active. This list was built around the results that the source calls inconclusive (neither active nor inactive); the mix of calls is not that of the screen. The call rests on the fitted dose curve; in most records, active means well fitted inhibition curve with a large enough effect; inconclusive means small, poorly fitted or top-dose-only effect; inactive means flat fitted curve, though single readings scatter. Potencies of inconclusive entries are doubtful fits and often do not repeat.

Assay: qHTS for Inhibitors of human tyrosyl-DNA phosphodiesterase 1 (TDP1): qHTS in cells in absence of CPT; further: nearly all actives have a fitted effect of over 55% in size
Settings: DT40 Tdp1-/- hTDP1 cells, no CPT, ATP luminescence, 48 h; activity change, negative = growth inhibition: at 46.2 µM (top of the series) unless noted
Procedure, shortened: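 Compound effects on proliferation are scored in DT40 Tdp1-/-;hTDP1 cells in the absence of CPT. ATP levels (CellTiter-Glo luminescence) are recorded after a ≥48 hr, 37 °C incubation.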
On the % scale 0 is the no-effect control and ±100 the full control effect; potency means the concentration at half of the fitted maximal effect; tags describe the fitted curve by direction and shape.

Row | SMILES | Potency | activity change, negative = growth inhibition
1 | CCOc1ccccc1Nc1ccc2cc(S(=O)(=O)N3CCCCC3)ccc2n1 | active: 18.4 µM | –
2 | OC1(c2cccnc2)CCN(Cc2ccc3c(c2)CN(Cc2ccc4nsnc4c2)CCO3)CC1 | inconclusive: 20.6 µM [inhibitor, single point] | –
3 | Cc1cc[n+](CC(=O)c2ccc(NC(=O)c3ccccc3)cc2)cc1 | inconclusive: 23.1 µM [inhibitor, single point] | –
4 | O=C(NCc1ccccc1F)c1ccc(S(=O)(=O)N2CCCCCC2)cc1 | inconclusive: 29.1 µM [inhibitor, single point] | –
5 | O=C(CC1(O)C(=O)Nc2cc(Cl)cc(Cl)c21)c1ccncc1 (centres undefined) | inconclusive: 29.1 µM [inhibitor, single point] | –
6 | Cc1cc(C)n(-c2nc3ccccc3c(=O)n2OCC(=O)OCc2ccccc2)n1 | active: 5.8 µM | –
7 | CCCOc1ccc(CNC(=O)C2CCN(c3nn4c(=O)cc(C)nc4s3)CC2)cc1 | inconclusive: 18.4 µM [inhibitor, partial curve] and inconclusive: 20.6 µM [inhibitor, single point] | –
8 | COc1ccc(S(=O)(=O)N2c3cc(C)ccc3OCC2C(C)(C)C)cc1 (centres undefined) | inconclusive: 29.1 µM [inhibitor, single point] | –
9 | COc1cccc(NC(=O)Nc2nc(SC)ns2)c1 | inconclusive: 4.61 µM [inhibitor, single point] | –
10 | COc1ccc(C(=O)N2CCC[C@@]3(CCN(Cc4cc(C(F)(F)F)cc(C(F)(F)F)c4)C3)C2)cc1 | inconclusive: 2.06 µM [inhibitor, single point] | –
11 | COc1ccc(CCC(=O)NCc2ccc3c(c2)CCN3C(=O)c2cccc(C)c2)cc1 | active: 4.61 µM | –
12 | CCOc1ccc(/C=N/NC(=O)c2ccc3nc[nH]c3c2)cc1OC | inconclusive: 29.1 µM [inhibitor, single point] | –
13 | Nc1ccccc1C(=O)NNc1ncc(C(F)(F)F)cc1Cl | – | inactive: 18.2%
14 | O=C(Nc1ccc(F)cc1F)C1CCCN1S(=O)(=O)c1cccc2nsnc12 (centres undefined) | – | inconclusive: -30.9% [inhibitor]
15 | CCN1CCN(c2c(Cl)cccc2NC(=O)c2cc3ccccc3o2)CC1 | active: 18.4 µM | –
16 | COc1ccc(N2CCN(C(=O)CNC(=O)c3ccccc3Cl)CC2)cc1 | – | inactive: -23.1%
17 | COc1cc(CNCCSc2nnnn2C)ccc1OCc1c(F)cccc1Cl | inconclusive: 29.1 µM [inhibitor, single point] | –
18 | O=C(c1cnn2c(C(F)(F)F)cc(-c3ccco3)nc12)N1CCc2ccccc2C1 | inconclusive: 23.1 µM [inhibitor, single point] | –
19 | CN(C)CCN1C(=O)CCC2(C)C1=CCC1C2CCC2(C)C1CCC2(C)O (centres undefined) | – | inactive: -9.56%
20 | O=C(Nc1nc(=O)n(C(=O)C2CC2)s1)c1ccccc1 | active: 23.1 µM | –
21 | O=C(N/N=C/C(Br)=C/c1ccccc1)c1cccs1 | active: 18.4 µM | –
22 | CCOC(=O)c1[nH]c(C)c(C(=O)NCc2ccc(F)cc2)c1C | inconclusive: 14.6 µM [inhibitor, partial curve] | –
23 | COC(=O)c1c(-c2ccccc2Cl)noc1/C=C/N(C)C | inconclusive: 23.1 µM [inhibitor, single point] | –
24 | COC(=O)CC1COc2ccccc2N1S(=O)(=O)c1ccc(Br)cc1 (centres undefined) | inconclusive: 14.6 µM [inhibitor, partial curve] | –
25 | Cc1cc(C)cc(N(CCC#N)C(=O)CSc2ncnc3sccc23)c1 | inconclusive: 29.1 µM [inhibitor, single point] | –

Row | SMILES | Potency | activity change, negative = growth inhibition
26 | O=C(CCS(=O)(=O)Cc1cccc(Cl)c1)NCCc1ccccc1 | – | inactive: -29%
27 | COc1cccc(CN(C)Cc2nc(Cc3ccccc3Cl)no2)c1 | – | inactive: -8.47%
28 | CCOc1ccc2[nH]c(=S)sc2c1 | inconclusive: 29.1 µM [inhibitor, single point] | –
29 | O=C(NCc1cccc(C(F)(F)F)c1)C1CC(c2ccc(C(F)(F)F)cc2)=NO1 (centres undefined) | inconclusive: 20.6 µM [inhibitor, single point] | –
30 | O=C(NCC(=O)N1CCN(c2ccccc2O)CC1)c1ccco1 | – | inactive: 4.02%
31 | CCCOc1ccc(C(=O)CCC(=O)Nc2ccc(N3CCN(C)CC3)cc2)cc1 | – | inactive: 2.42%
32 | O=C1C=CC(=O)N1c1ccc(Nc2ccccc2)cc1 | active: 5.8 µM | –
33 | CCOc1ccccc1CN1CCC(Oc2cccc(C(=O)NCCOC)c2)CC1 | – | inactive: -13.1%
34 | Nc1cc([N+](=O)[O-])ccc1OCc1ccccc1 | inconclusive: 18.4 µM [inhibitor, single point] | –
35 | Cc1nc2ccc(Cl)cc2nc(C)/c1=N\O | inconclusive: 29.1 µM [inhibitor, single point] | –
36 | C/C(=N/Nc1nc(C)c(C)s1)c1cccc([N+](=O)[O-])c1 | active: 23.1 µM | –
37 | CCOc1ccc(NC(=O)C2CCN(C(=O)NCc3ccccc3)CC2)cc1 | – | inactive: -19.2%
38 | COc1cc2c(NC3CCN(C)CC3)nc(N3CCCN(C)CC3)nc2cc1OCC1CCCNC1 (centres undefined) | – | inactive: -0.08%
39 | CC(C)CC(=O)N1CCN(Cc2cccc(Cl)c2)CC1 | – | inactive: -15.7%
40 | COc1nc(-c2ccc(Cl)cc2Cl)nc2ccccc12 | – | inconclusive: -36% [inhibitor]
41 | Cc1ccc(C(C)(C)C)cc1S(=O)(=O)N1CC(=O)Nc2ccccc21 | inconclusive: 16.4 µM [inhibitor, single point] | –
42 | COCCCNC(=O)/C(C#N)=C/c1cc(C)[nH]c1C | inconclusive: 29.1 µM [inhibitor, single point] | –
43 | CCc1ccc(CNC(=O)C2CCN(c3nnc(-n4c(C)ccc4C)s3)CC2)cc1 | active: 8.2 µM | –
44 | COc1ccc(N2CCN(c3oc(/C=C/c4cccc(OC)c4)nc3C#N)CC2)cc1 | – | inactive: 10.2%
45 | CC(=O)Nc1cccc(-c2csc(C(C)(NC(C)=O)c3ccccc3)n2)c1 (centres undefined) | inconclusive: 20.6 µM [inhibitor, single point] | –
46 | CCOc1ccc(CCNC(=O)c2cnc3c(-c4ccccc4)c(C)nn3c2C)cc1OCC | inconclusive: 16.4 µM [inhibitor, partial curve] | –
47 | Cc1ccc(-c2nc3ccccc3[nH]2)cc1NC(=O)c1ccc2c(c1)OCO2 | inconclusive: 29.1 µM [inhibitor, single point] | –
48 | Cc1cc(-c2ccccc2)nc(N/N=C/c2ccc(O)cc2O)n1 | active: 18.4 µM | –
49 | c1coc(CNc2nc(NCc3ccco3)c3ccccc3n2)c1 | active: 12.6 µM | –
50 | CCn1c(SCC(=O)N2CCCC2)nc2c(c1=O)SC(C)C2 (centres undefined) | – | inactive: -18.8%

Row | SMILES | Potency | activity change, negative = growth inhibition
51 | COc1ccccc1CNC(=O)C(C)n1c(=O)cc(C(F)(F)F)c2c(C)nn(C)c21 (centres undefined) | inconclusive: 29.1 µM [inhibitor, single point] | –
52 | O=C(Nc1ccc(N2CCOCC2)cc1)c1cccc(S(=O)(=O)N2CCOCC2)c1 | inconclusive: 18.4 µM [inhibitor, single point] | –
53 | NC(=O)c1ccsc1NC(=O)CSc1nncs1 | – | inactive: -7.33%
54 | Cn1ncc2c(NNC(=O)c3ccc(Cl)c(Cl)c3)ncnc21 | inconclusive: 29.1 µM [inhibitor, single point] | –
55 | O=C(Nc1cccc(NC(=O)c2ccco2)c1)c1ccc([N+](=O)[O-])cc1 | – | inactive: -25.2%
56 | COc1cccc(C(O)c2nc(-c3cccc(C(=O)O)c3)cs2)c1 (centres undefined) | – | inactive: -1.7%
57 | CC(C)c1ccc(CN2C(=O)NC3(CCCCCC3)C2=O)cc1 | inconclusive: 29.1 µM [inhibitor, single point] | –
58 | N#Cc1ccsc1NC(=O)CN1CCN(Cc2ccccc2)CC1 | – | inactive: -19.6%
59 | Clc1cccc(-c2ccc(-c3nc4ccccn4c3NCc3ccccc3)cc2)c1 | active: 23.1 µM | –
60 | O=[N+]([O-])c1ccc(C(c2sc3nc(-c4ccco4)nn3c2O)N2CCC3(CC2)OCCO3)cc1 (centres undefined) | – | inactive: 6.22%
61 | COc1ccc(/C=C(\NC(=O)c2ccccc2)C(=O)NCc2ccco2)cc1OC | – | inactive: -17.3%
62 | Nc1ccn(C2CO[C@H](CO)O2)c(=O)n1 (some centres undefined) | inconclusive: 0.0944 µM [inhibitor, full curve, poor fit] | –
63 | CCC(CO)Oc1cc(NCc2cccc(C(F)(F)F)c2)c2ncn(C(C)C)c2c1 (centres undefined) | inconclusive: 18.4 µM [inhibitor, single point] | –
64 | O=C(NCc1cc(F)ccc1F)C1CCC(=O)N(C2CCCCCC2)C1 (centres undefined) | inconclusive: 29.1 µM [inhibitor, single point] | –
65 | COC(=O)C1=CN(c2ccc(Oc3ccccc3)cc2)C(N)=C(C#N)C1c1ccc(-c2ccccc2)cc1 (centres undefined) | inconclusive: 16.4 µM [inhibitor, single point] | –
66 | CCN(C[C@H]1N[C@@](Cc2ccccc2)(C(=O)OC)[C@H]2C(=O)N(Cc3ccccc3)C(=O)[C@@H]12)C(=O)c1ccccc1 | inconclusive: 25.9 µM [inhibitor, single point] | –
67 | COc1cc(C2CC(=O)Nc3cc4c(cc32)OCCO4)cc(OC)c1O (centres undefined) | active: 20.6 µM | –
68 | Cc1ccc(-c2n[nH]c(=S)n2/N=C/c2c(C)nn(-c3ccccc3)c2C)cc1 | active: 16.4 µM | –
69 | Cc1nnc(NC(=O)C2CCN(S(=O)(=O)c3ccc(Cl)cc3)CC2)s1 | – | inactive: -1.04%
70 | Cc1ccc2c(c1)N(Cc1cccc(F)c1)C(=O)C(C)O2 (centres undefined) | inconclusive: 23.1 µM [inhibitor, single point] | –
71 | Cc1cccc2cc(CN(CCN(C)C)C(=S)NCc3ccco3)c(=O)[nH]c12 | inconclusive: 3.66 µM [inhibitor, full curve, poor fit] | –
72 | O=C(COC(=O)c1ccc(O)cc1)Nc1cc(C(F)(F)F)ccc1N1CCOCC1 | – | inactive: -0.569%
73 | COc1ccccc1NC(=S)NNC(=O)c1nn(C)c(C)c1Cl | – | inactive: -15.2%
74 | CC1CCc2cc(F)ccc2N1C(=O)CSc1nnc2c(n1)[nH]c1ccc(F)cc12 (centres undefined) | inconclusive: 20.6 µM [inhibitor, single point] | –
